Measured values: PubChem BioAssay (NCI)
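Exposure lasted 48 hours, with cells grown in 96-well plates and compounds tested at five concentrations. GI50 is the concentration that inhibits growth by half.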 Some entries of the source have several records that differ or are many. This list holds those alone. The source may hold further records. A record mostly stands for its own series of concentrations, which the source does not state; a value can be the end of its range.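 TGI: total growth inhibition.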

What was measured:
Assay in all cases: growth of human tumour cells (NCI), 48 h
HOP-62 NSCLC = system: HOP-62 NSCLC
RXF 393 renal = system: RXF 393 renal
SF-539 CNS = system: SF-539 CNS
SF-295 CNS = system: SF-295 CNS
K-562 leukemia = system: K-562 leukemia
CCRF-CEM leukemia = system: CCRF-CEM leukemia
DMS 273 small cell lung = system: DMS 273 small cell lung
XF 498 CNS = system: XF 498 CNS
DMS 114 small cell lung = system: DMS 114 small cell lung
RPMI-8226 leukemia = system: RPMI-8226 leukemia
HCC-2998 colon = system: HCC-2998 colon
HL-60(TB) leukemia = system: HL-60(TB) leukemia
HCT-116 colon = system: HCT-116 colon
NCI/ADR-RES ovarian = system: NCI/ADR-RES ovarian
SR leukemia = system: SR leukemia
HCT-15 colon = system: HCT-15 colon

Row | SMILES | TGI (HOP-62 NSCLC) | TGI (RXF 393 renal) | TGI (SF-539 CNS) | TGI (SF-295 CNS) | TGI (K-562 leukemia) | TGI (CCRF-CEM leukemia) | TGI (DMS 273 small cell lung) | TGI (XF 498 CNS) | GI50 (DMS 114 small cell lung) | TGI (RPMI-8226 leukemia) | TGI (HCC-2998 colon) | TGI (HL-60(TB) leukemia) | TGI (HCT-116 colon) | TGI (NCI/ADR-RES ovarian) | TGI (SR leukemia) | TGI (HCT-15 colon)
1 | CC1[C@@H]2[C@@H](C=C3C4CCC5Cc6nc7c(nc6C[C@@]5(C)C4C[C@H](O)[C@]32CO)CC2CCC3C4=C[C@H]5O[C@@]6(O[C@@](C)(CO)C[C@@H]6O)C(C)[C@@]5(O)[C@]4(C)[C@@H](O)CC3[C@]2(C)C7)O[C@]12CCC(C)(C)O2 (some centres undefined) | 34.9 nM and 2.43 nM | 19.9 nM and 0.507 nM | 12.4 nM and 175 nM | 5.81 nM and 0.39 nM | 353 nM and > 3.65 µM | 140 nM and > 3.65 µM | 11.1 nM and 0.744 nM | 727 nM and < 0.365 nM | < 0.365 nM [1 test] and 4.66 nM [mean of 2 tests] | 11.6 nM and > 3.65 µM | – | – | – | – | – | –
2 | CC1=NN(C(=O)c2ccccc2O)C(=O)/C1=C/c1ccc([N+](=O)[O-])cc1 | – | 2.9 µM and 81.8 nM | – | – | 762 nM and > 100 µM | 1.37 µM and > 100 µM | – | – | – | – | 7.26 µM and > 100 µM | 3.29 µM and > 36 µM | 2.3 µM and > 100 µM | 7.78 µM and > 100 µM | 4.23 µM and > 100 µM | 3.54 µM and > 100 µM
